In PMC7819943, “Rice protein-binding microarrays: a tool to detect cis-acting elements near promoter regions in rice”:
The list shows a part of the results.

biological target: T1, OsWOX13 (Oryza sativa, UniProt Q5QMM3 1-267); experiment: protein-binding microarray (RPBM); PBS, 2% BSA, 51.3 ng/ul salmon testes DNA, 50 uM zinc acetate, 200 nM TF, 25 C, 1 h; high values mean tight binding; details: protein: recombinant; tags: N-terminal polyhistidine and DsRed monomer fusion (pET32a); label: CyDye5-dUTP incorporated in the synthesized complementary strand; 3' TTTTT single-stranded linker to array surface; dsDNA, one strand shown
T1 sequence: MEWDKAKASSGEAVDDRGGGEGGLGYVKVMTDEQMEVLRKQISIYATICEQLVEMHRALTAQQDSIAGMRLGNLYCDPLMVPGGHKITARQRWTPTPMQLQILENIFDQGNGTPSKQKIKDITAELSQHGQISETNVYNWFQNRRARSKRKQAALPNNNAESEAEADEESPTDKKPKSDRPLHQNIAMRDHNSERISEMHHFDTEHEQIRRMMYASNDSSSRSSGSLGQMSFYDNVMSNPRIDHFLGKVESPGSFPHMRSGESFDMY
In short: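 A custom Agilent array was converted to double-stranded form by primer extension with Cy5-dUTP and blocked with 2% BSA. Protein at 200 nM in PBS with 2% BSA, salmon testes DNA and 50 µM zinc acetate was applied for 1 h at 25 °C, followed by washing. The proteins were polyhistidine–DsRed N-terminal fusions of transcription factors, expressed in E. coli BL21-CodonPlus and Ni–NTA-purified. The binding signal is per-feature fluorescence intensity (arbitrary units) from an Axon 4000B scanner.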

Question: With “CCCACCCGCCAGTCTAATTGGGTAGACCCAGTCCAAAATACGGAGTCACCTAGTGCAG” as the sequence, how does the binding signal read?
Answer: 3220 fluorescence intensity (a.u.)

Question: “ATAAATTTGATCGTAAATGTTGCGATTTGCTAAGACCGTACGGAGTCACCTAGTGCAG” was tested. Which binding signal did it give?
Answer: 23000 fluorescence intensity (a.u.)

Question: For “TCAAGTTTTGTGATTAAATTGTAACTAAACCTGTAGTTTTCGGAGTCACCTAGTGCAG”, which binding signal is on record?
Answer: 5660 fluorescence intensity (a.u.)

Question: Which binding signal does the source give for “AATTGATTAATTTTCTTAATCGAACCCATCAAGAAATCCACGGAGTCACCTAGTGCAG” here?
Answer: 33000 fluorescence intensity (a.u.)

Question: How did the binding signal turn out when “ATCAATTGGGTGTGACTGAGTGAGCAACAAGCTATATTCTCGGAGTCACCTAGTGCAG” was run?
Answer: 3980 fluorescence intensity (a.u.)

Question: For “GAAATGTGATTACCTTGTAGTTGGACCAGTCTACTGAGTTCGGAGTCACCTAGTGCAG”, which binding signal is on record?
Answer: 25200 fluorescence intensity (a.u.)

Question: Which binding signal does the source give for “AAAACTGTTTTATTAATTGTTGGCAGGGGAGAATACCCGTCGGAGTCACCTAGTGCAG” here?
Answer: 8240 fluorescence intensity (a.u.)

Question: With “TTAAATGCCATTTATTAAATGAGCGATGGTTGGAACGGCGCGGAGTCACCTAGTGCAG” as the sequence, how does the binding signal read?
Answer: 3810 fluorescence intensity (a.u.)

Question: How did the binding signal turn out when “AAACTGTAATTTACTCAATTTATTACTTCTACAAACGGACCGGAGTCACCTAGTGCAG” was run?
Answer: 27700 fluorescence intensity (a.u.)

Question: With “CCCTAACATGGAAAAGACTAGATGGAAGACTGACTATGCACGGAGTCACCTAGTGCAG” as the sequence, how does the binding signal read?
Answer: 5070 fluorescence intensity (a.u.)

Question: “GATGGTTCATAATTAACAGACTCAGTCCCATGATAGTATACGGAGTCACCTAGTGCAG” was tested. Which binding signal did it give?
Answer: 6380 fluorescence intensity (a.u.)

Question: How did the binding signal turn out when “AATGATAGGTGACATCTTTGCCACCAGCTTACCACCACCACGGAGTCACCTAGTGCAG” was run?
Answer: 3880 fluorescence intensity (a.u.)

Question: How did the binding signal turn out when “CAAAATTGGCCTGTTCAGTTTCCTCGTAGCTAAACTCTTGCGGAGTCACCTAGTGCAG” was run?
Answer: 11200 fluorescence intensity (a.u.)

Question: With “GTATTAATCATGTTTTATCATCTAACAACAACGAAAATACCGGAGTCACCTAGTGCAG” as the sequence, how does the binding signal read?
Answer: 7970 fluorescence intensity (a.u.)

Question: With “TATCCTGTAATTGACTAAAGAAGCTGCGTCTTGCATGACACGGAGTCACCTAGTGCAG” as the sequence, how does the binding signal read?
Answer: 29000 fluorescence intensity (a.u.)

Question: How did the binding signal turn out when “ACTTCCAATTAGGAGTCTGCATCATCCCAGGCAGCAGGGCCGGAGTCACCTAGTGCAG” was run?
Answer: 3670 fluorescence intensity (a.u.)

Question: How did the binding signal turn out when “AATAAATTTAGTGACAGAATTATGGCGTCTAATCTGCAAACGGAGTCACCTAGTGCAG” was run?
Answer: 13600 fluorescence intensity (a.u.)

Question: “ATAAATTGTGATAATTTGATCAAAGTATATATAGTTTTGTCGGAGTCACCTAGTGCAG” was tested. Which binding signal did it give?
Answer: 28600 fluorescence intensity (a.u.)

Question: With “AGAAAACTGACAAATCGTTTACTCGACTTGACTCGAACTTCGGAGTCACCTAGTGCAG” as the sequence, how does the binding signal read?
Answer: 5930 fluorescence intensity (a.u.)

Question: For “CCTAATTGTGTTTCTATATGGACTCTATACTCTACTTCTACGGAGTCACCTAGTGCAG”, which binding signal is on record?
Answer: 24300 fluorescence intensity (a.u.)

Question: With “TAAATAATTAATTAAAGATAAGGCAAGAAATTAATCCAAACGGAGTCACCTAGTGCAG” as the sequence, how does the binding signal read?
Answer: 7760 fluorescence intensity (a.u.)

Question: For “CAAATCATCAAATTTAACCGTTTCAGTGTAGATCAAGGAACGGAGTCACCTAGTGCAG”, which binding signal is on record?
Answer: 5330 fluorescence intensity (a.u.)

Question: “CTTGCCTCAATTATCATTAACAACTGCTAAATATTGGCACCGGAGTCACCTAGTGCAG” was tested. Which binding signal did it give?
Answer: 9290 fluorescence intensity (a.u.)

Question: How did the binding signal turn out when “CATGTCGTCGTCGTGGTGGTGGTGGTGGTGGTGGGGCGGGCGGAGTCACCTAGTGCAG” was run?
Answer: 7730 fluorescence intensity (a.u.)

Question: For “ACCAGATTCACCGTGATTAGTCTCACACTTAATAAATCGACGGAGTCACCTAGTGCAG”, which binding signal is on record?
Answer: 4900 fluorescence intensity (a.u.)

Question: With “TGTAATAGTGGGTTAATTAATTAGCTTGCCAGCTTCAGGGCGGAGTCACCTAGTGCAG” as the sequence, how does the binding signal read?
Answer: 21900 fluorescence intensity (a.u.)

Question: How did the binding signal turn out when “ATCAAATCAATAATTAAATATATTTTCATAATAAATTTGTCGGAGTCACCTAGTGCAG” was run?
Answer: 20400 fluorescence intensity (a.u.)

Question: How did the binding signal turn out when “TCATCAATCATCATCCCTTCTTCACTCTCCCTCGGCAACTCGGAGTCACCTAGTGCAG” was run?
Answer: 28400 fluorescence intensity (a.u.)

Question: Which binding signal does the source give for “TATATATATATATATATATATAGTTTTAGATATTTCACAACGGAGTCACCTAGTGCAG” here?
Answer: 20500 fluorescence intensity (a.u.)

Question: “TCTTGTAATTATTCTATGTTTAATACTCTAAATTAGCATCCGGAGTCACCTAGTGCAG” was tested. Which binding signal did it give?
Answer: 20000 fluorescence intensity (a.u.)

Question: Which binding signal does the source give for “TTAATTTCAATTTAAAACTACACCATACTTGCTTTGTTTGCGGAGTCACCTAGTGCAG” here?
Answer: 27700 fluorescence intensity (a.u.)

Question: Which binding signal does the source give for “CCTGAGATATTGATTACTACTCTTGTCGTCCGGGACCGATCGGAGTCACCTAGTGCAG” here?
Answer: 11000 fluorescence intensity (a.u.)

Question: With “CAAAATAATTTTGCTGTTAAGTTGAGGTACCCTCTGGTGACGGAGTCACCTAGTGCAG” as the sequence, how does the binding signal read?
Answer: 5740 fluorescence intensity (a.u.)

Question: With “ATATATTTAATATATTTAATTTACCTATGTATTTAAATAGCGGAGTCACCTAGTGCAG” as the sequence, how does the binding signal read?
Answer: 4660 fluorescence intensity (a.u.)

Question: “AAATTGATTAGATTTACAGCTAACGGTTACTGTACATTGACGGAGTCACCTAGTGCAG” was tested. Which binding signal did it give?
Answer: 34700 fluorescence intensity (a.u.)

Question: Which binding signal does the source give for “AAAGTTGACAGAGACGTCCTCTCTACTGTTCTGTGACCGTCGGAGTCACCTAGTGCAG” here?
Answer: 15300 fluorescence intensity (a.u.)

Question: “AGCGATTGGCTTAATTTCAAGTTAGTCTAAACCAAAAGATCGGAGTCACCTAGTGCAG” was tested. Which binding signal did it give?
Answer: 15300 fluorescence intensity (a.u.)

Question: How did the binding signal turn out when “CCTTATGTGACACTATATTAATTAAGAGAGAGAGTGAAGACGGAGTCACCTAGTGCAG” was run?
Answer: 4280 fluorescence intensity (a.u.)

Question: How did the binding signal turn out when “CATTAATTCTAATCGACGGAGAGGAATTGGAAACGAAAATCGGAGTCACCTAGTGCAG” was run?
Answer: 3760 fluorescence intensity (a.u.)

Question: For “ATTTCGGTTGAAATTGAAGATGATGTGACTGAAAAGTTGTCGGAGTCACCTAGTGCAG”, which binding signal is on record?
Answer: 5390 fluorescence intensity (a.u.)

Question: With “TGTGATTAGTTCTAATTTAATATAGCAAGAACTAGTGGATCGGAGTCACCTAGTGCAG” as the sequence, how does the binding signal read?
Answer: 53800 fluorescence intensity (a.u.)

Question: With “CATATGCAGACTCCAATTAATAAACATAAATTTGTCAGATCGGAGTCACCTAGTGCAG” as the sequence, how does the binding signal read?
Answer: 7780 fluorescence intensity (a.u.)
